About 800 (1.6%) of roughly 50,000 compounds showed an effect of 50% or more. The list shows a part of the results.
biological target: Bcl-2-like protein 10 (Homo sapiens) (UniProt Q9HD36); test: Phenotype converters, Bcl-B/TR3 peptide binding displacement, primary biochemical FP (AID 1240); conditions: GST-Bcl-B / FITC-TR3 peptide fluorescence polarization; stronger effect = higher value; compound at 3.75 mg/L;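 also: 0% = Bcl-B with tracer peptide and DMSO and 100% = tracer peptide lacking Bcl-B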
Sequence of UniProt Q9HD36 (Q9HD36 whole entry, looked up): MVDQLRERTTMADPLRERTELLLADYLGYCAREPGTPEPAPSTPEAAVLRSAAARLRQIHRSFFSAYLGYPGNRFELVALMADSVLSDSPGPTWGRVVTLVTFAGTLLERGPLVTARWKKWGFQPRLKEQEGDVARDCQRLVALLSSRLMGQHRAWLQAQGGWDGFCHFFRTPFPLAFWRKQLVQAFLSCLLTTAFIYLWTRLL

SMILES | displacement [%]
c1ccc(-n2c(SCc3cccc4ccccc34)nnc2-c2ccco2)cc1 | -5.3
CCOC(=O)c1c(C)nn(Cc2ccccc2)c1N | 1.3
COc1ccc(CNc2ccc3c(c2)ncn3C)cc1 | -1
CCOC(=O)c1c(N2CCOCC2)nc2ccc([N+](=O)[O-])cc2c1-c1ccccc1 | 10.6
CC1=C(C(=O)OC2CCCC2)C(c2ccccc2Cl)C2=C(CC(C)(C)CC2=O)N1 (stereo unspecified) | 6.1
COCCOC(=O)C1=C(C)NC(=O)CC1c1cccc(Cl)c1 (stereo unspecified) | -9.8
Clc1ccc(-n2ncnc2-c2ccc(Br)cc2)cc1 | -10.1
O=C(COc1ccc2ccccc2c1)Nc1ccc(S(=O)(=O)Nc2nccs2)cc1 | -11.8
COc1ccccc1NCN1C(=O)S/C(=C\c2ccc(C(C)C)cc2)C1=O | 14.7
CCOC(=O)C1=C(O)/C(=C/c2cc(C)n(-c3cccc(Br)c3)c2C)N=C1C | 22.6
O=C(O)C(Cc1ccccc1)P(=O)(O)CN1CCOCC1 (stereo unspecified) | 6.4
Cc1onc(-c2ccccc2Cl)c1C(=O)N[C@@H](C)c1ccccc1 | 5.1
CC(Oc1cccc(Cl)c1)C(=O)N1CCN(c2ccc(Cl)cc2)CC1 (stereo unspecified) | -11.8
Cc1cc(NS(=O)(=O)c2ccc(NC(=O)c3ccco3)cc2)nc(C)n1 | -10.4
C=C(C)COc1ccc2c(-c3ccccc3)cc(=O)oc2c1OCC(=C)C | -1.9
CCOc1ccccc1N(CC(N)=O)S(=O)(=O)c1ccccc1 | -5.1
N#C/C(=C\c1ccc(-c2ccc(Cl)cc2)o1)C(N)=O | 3.9
COc1ccc(NC(=O)/C=C/c2ccco2)cc1OC | -11.8
Cc1cc(=O)[nH]c2ccc([N+](=O)[O-])cc12 | 27.7
CN(C)CC(=O)C12CC3CCC(CC(C3)C1)C2 | -4.6
O=C1NN(c2ccc(Cl)c(Cl)c2)C(=O)/C1=C/c1ccc(O)cc1O | 24
CC(C)c1ccc(NC(=O)c2ccc(CN3CCc4ccccc4C3)cc2)cc1 | 16
O=C(CC1Sc2ccccc2NC1=O)Nc1cccc(Cl)c1 (stereo unspecified) | -0.3
CCOc1ccc(/C=C2\C(=O)NC(=O)N(c3cccc(Cl)c3)C2=O)cc1Cl | 6.2

SMILES | displacement [%]
COC(=O)C1=CNC=C(C(=O)OC)C1c1cc(OC)c(Br)cc1OC | 0.6
O=C(CSc1nc2ccccc2o1)Nc1ccccc1 | -9
O=C(Nc1ccc(OCc2ccccc2)cc1)Nc1cccc(Cl)c1 | -0.6
Cc1ccc(OCC(=O)N/N=C\c2ccc(OC(=O)c3ccc(Br)cc3)cc2)cc1 | 5
CC1=C(C(=O)Nc2ccc(C)cc2)C(c2ccccc2Br)NC(=S)N1 (stereo unspecified) | 84.9
O=C(Oc1ccc(/C=C2/SC(=S)N(c3ccccc3)C2=O)cc1)c1ccccc1 | 13.7
CC1(C)CC(NC(=O)c2ccc(I)cc2)CC(C)(C)N1 | -0.4
CC(=O)Nc1sc2c(c1C(=O)Nc1ccccc1C)CCC2 | 16.9
O=C(N1CCOCC1)N1CCN(c2ccccc2)CC1 | 7.3
O=C(/C(=C(\O)c1ccccc1)c1nc2ccccc2[nH]1)c1ccc([N+](=O)[O-])cc1 | 12.5
CC1(C)CC(=NN=C2CC(C)(C)NC(C)(C)C2)CC(C)(C)N1 | 1.1
O=C(N=c1ccccn1O)C(O)(c1ccccc1)c1ccccc1 | -28.4
Cc1cc(Cl)ccc1NC1=CC(=O)CC(c2ccccc2)C1 (stereo unspecified) | -8.5
C=C(Br)Cn1c(SCC)nc2ccccc21 | -4.2
COc1ccc(Cl)cc1NC(=O)c1c(O)c2ccccc2n(CC(C)C)c1=O | -2.8
CCOC(=O)c1c(NC(=O)c2cccc(OC)c2)sc2c1CCC2 | 11
COc1ccccc1N1CCN(C(=O)C2CCCO2)CC1 (stereo unspecified) | 5.4
O=C(CSc1nc2ccccc2s1)NNC(=S)NC1CCCCC1 | -8.9
CC(C)c1ccccc1NS(=O)(=O)c1ccc(Cl)cc1 | -2.6
CC(C)NC(=O)C1CC(=O)N(c2ccc(Br)cc2)C1 (stereo unspecified) | 2.9
CC(C)c1cc(NS(=O)(=O)c2ccccc2N)cc(C(C)C)c1O | 9.7
COc1ccc(C2NN=C(c3ccc(C)cc3)S2)cc1OC (stereo unspecified) | 2.5
NCC(O)(c1ccc(Cl)cc1)c1ccc(Cl)cc1 | -3.8
c1coc(-c2nc3c(ccc4ccccc43)[nH]2)c1 | -1.8

SMILES | displacement [%]
O=[N+]([O-])c1ccc(N2N=C(c3ccc(O)cc3)CC2c2ccc(F)cc2)cc1 (stereo unspecified) | 0
CCN(c1ccccc1)S(=O)(=O)c1ccc(OC)cc1 | -10.7
CCOC(=O)Nc1nnc(CC(C)C)s1 | -9
O=C(CC1c2ccccc2Oc2ccccc21)Nc1ccccc1F | -1.1
CC(CCc1ccccc1)NC(=O)C1(c2ccccc2)CCOCC1 (stereo unspecified) | -8.3
O=C1c2cccc3cccc(c23)C(=O)N1CCOCc1ccccc1 | -4.3
Cn1cc(/C=C/c2nc3ccccc3c(=O)n2-c2ccccc2[N+](=O)[O-])c2ccccc21 | -4.1
CCN(CC)C(=O)c1sc(NC(=O)c2cc3ccccc3oc2=O)c(C#N)c1C | 39.8
O=C(O)CCCCCNC(=O)c1ccccc1O | 20.5
O=C(O)CN1C(=O)/C(=C/c2ccc(OC(=O)c3ccccc3I)cc2)SC1=S | -2.4
O=c1oc(-c2ccco2)nc2c1cnn2-c1ccccc1 | 6.5
O=C1CSc2ccc([N+](=O)[O-])cc2N1Cc1ccccc1F | -92
N/C(=N\OC(=O)COc1ccccc1)c1cccnc1 | 7.1
O=C(/C=C/c1ccccc1)NC(c1ccccc1)c1ccccc1 | 2.5
CC1=C(C#N)c2nc(N)c(C#N)c(C)c2/C1=C\c1ccc(-c2cccc(Cl)c2)o1 | -3.2
CC(=O)SC(CC(=O)c1ccccc1)c1cn(-c2ccccc2)nc1-c1ccc(C)cc1 (stereo unspecified) | 5.2
COC(=O)c1ccc(NC(=O)C(C)N2C(=O)c3cccc4cccc(c34)C2=O)cc1 (stereo unspecified) | 13.7
O=c1oc2cc(OC/C=C/c3ccccc3)ccc2c2c1CCCC2 | 0
O=C(Nc1ccc(I)cc1Cl)c1ccc(-c2cccc([N+](=O)[O-])c2)o1 | 1
O=C(NCCNc1ccccc1[N+](=O)[O-])c1ccc(Br)cc1 | 16.8
COC(=O)c1cc(NC(=O)/C=C/c2ccc(OC)cc2)cc(C(=O)OC)c1 | 7.5
O=C(CCc1ccccc1)N1N=C(c2ccc(Br)cc2)CC1(O)C(F)(F)F (stereo unspecified) | 8.5
COc1ccc(/C=N/N2CCN(Cc3cccc4ccccc34)CC2)c(OC)c1 | 0.4

— PubChem BioAssay AID1240 (Sanford-Burnham Center for Chemical Genomics, 2008)
